Test results as given in PubChem BioAssay AID686978 (National Center for Advancing Translational Sciences (NCATS), 2013).
“And” between values parts separate entries of the source, which are not always exact repeats. Equal entries are not always repeated. The campaign covered roughly 420,000 compounds. About 64,000 (15%) were called active. The inconclusive results got no clear call from the source; some entries with a clear call stand among them for comparison. The call rests on the fitted dose curve; in most records, active means well fitted inhibition curve with a large enough effect; inconclusive means small, poorly fitted or top-dose-only effect; inactive means flat fitted curve, though single readings scatter. Potencies beside an inconclusive call are fits to weak or partial responses and may not hold up.

Experiment: qHTS for Inhibitors of human tyrosyl-DNA phosphodiesterase 1 (TDP1): qHTS in cells in absence of CPT; further: nearly all actives have a fitted effect of over 55% in size
Details: DT40 Tdp1-/- hTDP1 cells, no CPT, ATP luminescence, 48 h; activity change, negative = growth inhibition: at 46.2 µM (top of the series) unless noted
How it was run: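 Cells were dispensed at 400 per well, compounds added by pin tool, plates incubated ≥48 hr at 37 °C, then CellTiter-Glo added for 30 min at room temperature before luminescence reading. Line: DT40 Tdp1-/- complemented with hTDP1; camptothecin omitted.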
On the % scale 0 is the no-effect control and ±100 the full control effect; potency means the concentration at half of the fitted maximal effect; tags describe the fitted curve by direction and shape.

| Compound | Potency | activity change, negative = growth inhibition |
| --- | --- | --- |
| COc1ccccc1/C=C1\SC(=O)N(CC(=O)N(C)C2CCS(=O)(=O)C2)C1=O (stereo unspecified) | inactive |  |
| CO/N=C\c1cc(C(=O)c2ccc(Cl)cc2Cl)cn1C | inconclusive: 20.6 µM [inhibitor, partial curve] |  |
| Cc1ccc2c(C)c(C(=O)N(C)Cc3nccn3C)oc2c1C | inconclusive: 16.4 µM [inhibitor, partial curve, poor fit] |  |
| CN(C)C(=O)c1cc(Cl)ccc1Sc1cc(Cl)ccc1Cl | inconclusive: 25.9 µM [inhibitor, single point] |  |
| COc1cc(-n2c(=O)c3ccccc3n(CC(=O)OCc3ccccc3)c2=O)cc(OC)c1OC | inactive |  |
| CCc1ccccc1N(CC(=O)N1CCc2ccccc2C1)S(C)(=O)=O | inconclusive: 29.1 µM [inhibitor, single point] |  |
| CN(C)S(=O)(=O)c1ccc(NC(=O)CSc2ncnc3ccccc23)cc1 | inconclusive: 18.4 µM [inhibitor, single point] |  |
| O=C(Nc1ccc(F)cc1)C(CCc1ccccc1)N1CCN(c2ccncc2)CC1 (stereo unspecified) | active: 23.1 µM |  |
| CCOC(=O)c1ccc(NC(=O)CCS(=O)(=O)c2ccc3c(c2)oc(=O)n3C)cc1 | inconclusive: 14.6 µM [inhibitor, single point] |  |
| NS(=O)(=O)c1ccc(N2N=C(c3ccccc3)CC2c2ccc(Br)cc2)cc1 (stereo unspecified) | inconclusive: 29.1 µM [inhibitor, single point] |  |
| CCNC(=O)C1CC(=O)N(Cc2ccc(F)cc2)C(=Nc2ccc(OC)cc2)S1 (stereo unspecified) |  | inconclusive: -30.9% [inhibitor] |
| CCOC(=O)c1sc(=N)n(-c2ccc(OC)cc2)c1C | inconclusive: 23.1 µM [inhibitor, partial curve, poor fit] |  |
| CCN(CC)C(=O)c1c2c(nc3ccccc13)-c1ccccc1CC2 | inconclusive: 20.6 µM [inhibitor, partial curve] |  |
| CCOc1nc(NCCc2ccc(OC)c(OC)c2)nc(N2CCN(c3ccc(OC)cc3)CC2)n1 | inactive |  |
| C=C(C)C1CC=C(C)/C(=N/NC(=O)COc2cccc(C)c2)C1 (stereo unspecified) | inconclusive: 23.1 µM [inhibitor, single point] |  |
| COc1ccc(CN2CCN(Cc3ccccc3)C(CCO)C2)cc1OC (stereo unspecified) | inactive |  |
| CCCC(=O)O[C@]1(C(=O)CCl)[C@@H](C)C[C@H]2[C@@H]3CCC4=CC(=O)C=C[C@]4(C)[C@@]3(F)C(=O)C[C@@]21C | inconclusive: 26.6 µM [inhibitor, single point] and inconclusive: 16.4 µM [inhibitor, partial curve] |  |
| CCc1ccc(NC(=O)C(CC)n2nnc(C(=O)OC)c2C(=O)OC)cc1 (stereo unspecified) | inactive |  |
| CCOc1ccc(-c2ccc(C=O)o2)c([N+](=O)[O-])c1 | inconclusive: 16.4 µM [inhibitor, single point] |  |
| CCN(CCCNC(=O)c1cc2c(=O)[nH]c3ccc(C)cc3c2s1)c1ccc(C)cc1 | inconclusive: 23.1 µM [inhibitor, single point] |  |
| COCc1[nH]nc2c1C(c1ccnc3ccccc13)C(C#N)=C(N)O2 (stereo unspecified) | active: 9.2 µM |  |
| Cc1cccc(CN2C(=O)CC(c3ccc(Cl)cc3)c3c(C)nn(-c4nc(C)cc(C)n4)c32)c1 (stereo unspecified) | inconclusive: 29.1 µM [inhibitor, single point] |  |
| COc1cc2c(cc1OC)C(C)N(C(=O)c1cc3c(s1)-c1ccccc1OC3)CC2 (stereo unspecified) | active: 20.6 µM |  |
| COc1ccc(CN2CCC(C(=O)NC(c3ccc4c(c3)OCO4)c3ccccn3)CC2)cc1 (stereo unspecified) | inactive |  |

| Compound | Potency | activity change, negative = growth inhibition |
| --- | --- | --- |
| CCCNC(=O)c1ccc(N2CCC3(CC2)CC(c2ccccc2)=NO3)c(N)c1 | inconclusive: 16.4 µM [inhibitor, single point] |  |
| CCCCN(CCCC)CCNC(=O)CN1C(=O)CSc2ccc(S(=O)(=O)N3CCCCC3)cc21 | inconclusive: 29.1 µM [inhibitor, single point] and inconclusive: 16.4 µM [inhibitor, single point] |  |
| Cc1cc(O)c(C2=Nc3ccccc3SC(c3ccc(Cl)cc3)C2)c(=O)o1 (stereo unspecified) | active: 7.31 µM |  |
| O=C(Nc1ccccc1)N(Cc1ccc(Cl)cc1)CC(O)C(F)(F)F (stereo unspecified) |  | inconclusive: -32.8% [inhibitor] |
| NC(Cc1ccc(C(F)(F)F)cc1)c1csc(NC(=O)Nc2ccccc2Cl)n1 (stereo unspecified) | active: 20.6 µM |  |
| C[C@H](CO)N1C[C@H](C)[C@@H](CN(C)Cc2ccccc2)Oc2ccc(NC(=O)CCCCCC(=O)Nc3ccccc3N)cc2C1=O | inconclusive: 16.4 µM [inhibitor, single point] |  |
| COc1ccc(/C=C/C(=O)NC(=S)NNC(=O)c2cccnc2)cc1 | inconclusive: 20.6 µM [inhibitor, single point] |  |
| Cc1cccc(N2CCN(C(=O)C3CCN(S(=O)(=O)c4cn(C)cn4)CC3)CC2)c1C | inconclusive: 1.84 µM [inhibitor, partial curve, poor fit] |  |
| COc1ccccc1NC(=O)CN1C(=O)c2cccc3cccc1c23 | active: 18.4 µM |  |
| N#C/C(=C/c1cccn1-c1cccc(C(=O)O)c1)c1ccc(F)cc1 | inactive |  |
| COc1ccc2c(c1)C1NC(=S)NC(C)(O2)C1C(=O)Nc1ccc(Cl)cc1 (stereo unspecified) | inconclusive: 18.4 µM [inhibitor, partial curve] |  |
| Cc1ccc(Cl)cc1N1CCN(S(=O)(=O)c2ccc3[nH]c4c(c3c2)CCCC4)CC1 | inconclusive: 29.1 µM [inhibitor, single point] |  |
| CCN(CC)c1ccc(NC(=O)Nc2ccc(C(C)=O)cc2)cc1 | inconclusive: 18.4 µM [inhibitor, partial curve] |  |
| Nc1nc(Br)c2c(F)cccc2c1-c1ccc(F)cc1 | inconclusive: 18.4 µM [inhibitor, partial curve] |  |
| CC(=O)N1c2ccccc2C2(O)N=C(C)SC12 (stereo unspecified) | inconclusive: 29.1 µM [inhibitor, single point] |  |
| Cn1cc(C(C[N+](=O)[O-])c2ccccc2)c2ccccc21 (stereo unspecified) | inconclusive: 18.4 µM [inhibitor, single point] |  |
| O=S(=O)(c1cccs1)N1CCN(c2ccc(F)cc2)CC1 | inactive |  |
| CC(C)Oc1ccc(C(=O)CCN2CCOCC2)cc1 | active: 3.66 µM |  |
| CC(C)CN1C(=O)CSCC1(C)C(=O)NCc1ccccc1 (stereo unspecified) | inactive |  |
| CC(=Cc1ccccc1)C=C1SC(=S)N(CCCC(=O)Nc2ccc(C(=O)O)cc2)C1=O | inconclusive: 29.1 µM [inhibitor, single point] |  |
| CCO[C@@H]1OC(C(=O)N2CCN(Cc3ccccc3)CC2)=C[C@H](c2coc3ccccc3c2=O)[C@H]1CCCO | active: 7.31 µM |  |
| Fc1ccc(-c2nc3ccccc3c3nc4ccccc4n23)cc1 | inconclusive: 29.1 µM [inhibitor, single point] |  |
| NS(=O)(=O)c1ccc(CCNc2ccn3nc(-c4ccc(OCCN5CCOCC5)cc4)cc3n2)cc1 | active: 14.6 µM |  |
| COc1ccccc1NC(=O)C1CCN(S(=O)(=O)c2ccc3c(c2)oc(=O)n3C)CC1 | inconclusive: 29.1 µM [inhibitor, single point] |  |

| Compound | Potency | activity change, negative = growth inhibition |
| --- | --- | --- |
| CC(C)(CO)C(O)C(=O)NCCCO (stereo unspecified) | inactive |  |
| Nc1ccc(N2CCN(c3cccc(Cl)c3)CC2)cc1 | active: 14.6 µM |  |
| O=C(O)CCN(Cc1ccccc1)S(=O)(=O)c1c(Cl)cccc1Cl | inactive |  |
| CCOCCCn1c(SCC(=O)Nc2cccc(OC)c2)nc2ccccc2c1=O | inconclusive: 29.1 µM [inhibitor, single point] and inconclusive: 23.1 µM [inhibitor, single point] |  |
| O=C(O)c1cc(-c2ccccc2)n(-c2ccc(Cl)cc2)n1 | inactive |  |
| Cc1cccc(NC(=O)Nc2cccc(C)n2)n1 | inactive |  |
| CCOc1ccccc1CNC(=O)c1cnc2sc(N3CCCC3)nn2c1=O | active: 16.4 µM |  |
| COc1ccc(NC(=O)COC(=O)C2CC(=O)N(CCc3ccc(OC)c(OC)c3)C2)cc1Cl (stereo unspecified) | inactive |  |
| Cc1ccc(C(=O)N2CC(=O)Nc3ccccc32)o1 | inactive |  |
| CSc1ccc(NC(=O)C2(C)CCN2C(=O)c2cc(C)n(C)n2)cc1 (stereo unspecified) | active: 20.6 µM |  |
| O=C(Nc1ccc(N2CCN(C(=O)c3ccccc3)CC2)cc1)c1ccc2c(c1)OCCO2 | inconclusive: 25.9 µM [inhibitor, single point] |  |
| CC1(C(=O)Nc2ccc(Cl)cc2)Cc2c(-c3ccc(C(N)=O)cc3)ccnc2O1 (stereo unspecified) | inconclusive: 23.1 µM [inhibitor, single point] |  |
| Cc1ccc(NC(=O)C(=O)c2ccc(C)cc2)cc1 | inconclusive: 9.2 µM [inhibitor, single point] |  |
| CCOc1ccc(NS(=O)(=O)c2ccc(C(=O)N3CCCC(C)C3)cc2)cc1 (stereo unspecified) | active: 16.4 µM |  |
| O=C(Nc1cccc(S(=O)(=O)Nc2ccccc2Cl)c1)c1ccc(Cl)nc1 | active: 14.6 µM |  |
| COc1ccccc1Nc1nc(N)nc(CSC(=S)N2CCOCC2)n1 | inactive |  |
| Cc1nc(NC(C)c2ccccc2)sc1C(=O)Nc1ccccc1 (stereo unspecified) | inactive |  |
| O=C(NCc1ccc2c(c1)OCO2)c1ccc2c(c1)N(Cc1ccc(F)cc1)C(=O)c1ccccc1S2=O (stereo unspecified) | inactive |  |
| O=C(Cn1ccccc1=S)c1ccc(Cl)c(Cl)c1 | inactive |  |
| CS(=O)(=O)N1CCCC(C(=O)Nc2ccccc2)C1 (stereo unspecified) | inactive |  |
| CN(C)CC(=O)N[C@@H]1CC[C@@H](CCNS(=O)(=O)c2ccccc2)O[C@@H]1CO | inactive |  |
| CCN(CC)C(=O)c1ccc(COc2ccc(Cl)c(C)c2)o1 | active: 13 µM |  |
| CCN1CCN(CCOc2cccc(Cl)c2Cl)CC1 | inconclusive: 29.1 µM [inhibitor, single point] |  |
